{"source": "patent US20120034162A1", "about": "“Fullerene Assisted Cell Penetrating Peptides” (William March Rice University, priority 2006, published 2012)", "key": {"HEK-293a cells [1]": {"system": "HEK-293a cells", "assay": "Cellular uptake by fluorescence microscopy", "format": "cell-based, human"}, "[2]": {"assay": "Aggregate size and morphology by cryo-TEM", "format": "physicochemical", "conditions": "1.0 mg/mL in PBS buffer, pH 7", "procedure": "To further examine the actual aggregate size and morphology, cryo-TEM experiments were performed for both peptides 25 and 26. The images were taken in the concentration of 1.0 mg/mL for both peptides. Samples for cryo-TEM studies were prepared by dipping a copper grid coated with amorphous carbon-holey film into the sample solution. The TEM images were mainly taken in the hole region of the TEM grid to minimize the artificial effect from the samples or ice. […] Both peptides forms spherical and ellipsoidal clusters, with an average aggregate sizes of 40-80 nm for 25 and 50-150 nm for 26, which are generally smaller than the diameters observed by DLS. Consistent with the DLS study, Baa-Lys(FITC)-Lys8-OH (25) are more uniform in size than Baa-Lys(FITC)-NLS (26). FIGS. 9a and 9b show the vitreous ice cryo-TEM micrograph of the large aggregates (9a) and small aggregates (9b) formed by Baa-Lys(FITC)-Lys8-OH in PBS buffer (1 mg/mL at pH=7). There are two dominant groups in size for 25; one type has the diameter of 40-80 nm with predominant population at size of ca. 50 nm, and the other population has a diameter less than 20 nm, which may correspondent to the size of fullerene peptides itself. […]"}, "HEK-293a cells [3]": {"system": "HEK-293a cells", "assay": "Cellular uptake by fluorescence microscopy", "format": "cell-based, human", "conditions": "for cellular uptake / localization by fluorescence: 40 μM, 24 hrs, 37° C.", "procedure": "Cellular uptake. An immortalized human embryonic kidney epithelial cancer cell line was used in initial cellular uptake studies. HEK-293a cells were cultured in RMPI 1640 medium supplemented with 10% fetal bovine serum (FBS) in 5% CO2 and 37° C. humidified incubator. The medium was supplemented with penicillin (100 U·mL^−1), streptomycin (100 μg/mL), and glutamine (2 mM). For experiments and microscopy, cells were seeded at 1×10^4 cells per well on 6-well plates and grown for two days in RPMI supplemented with 10%. Cells were incubated with each peptide (40 μM) for 24 hrs at 37° C. After treatment, the cells were washed with RPMI supplemented with 10% FBS and phosphate buffered saline (PBS, 10 mM). Fluorescence was observed by a fluorescent microscope equipped with FITC and red filters."}, "[4]": {"format": "in vitro ADME, bovine", "description": "Peptide stability. In order to test the stability of the fullerene peptide linkage, samples of Baa-Lys(FITC)-Lys8-OH and H-Baa-Lys(FITC)-NLS were exposed to bovine plasma for up to 3 days and analyzed by HPLC."}, "[5]": {"system": "neuroblastoma cell line (IMR 32)", "assay": "Cellular uptake by fluorescence microscopy with DAPI staining", "format": "cell-based", "conditions": "IMR 32 cells, 24 hrs, 37° C.", "procedure": "In order to show the generality of our results we have also studied the uptake of H-Baa-Lys(FITC)-NLS into neuroblastoma cell line (IMR 32). Neuroblastoma is the most common extracranial solid tumor in children and is responsible for 8-10% of pediatric tumors and 15% of pediatric cancer deaths. Neuroblastoma cells are known for their difficulty in transfection through the cell membrane. H-Baa-Lys(FITC)-NLS was incubated with IMR 32 cells for 24 hrs at 37° C. The cells were then washed with PBS buffer and treated with DAPI nuclei staining dye prior to observation with a fluorescence microscope."}, "[6]": {"system": "MCF-7 breast cancer cells", "assay": "Cellular proliferation, CCK-8 assay", "format": "cell-based", "conditions": "MCF-7, 48 h, concentration given with value", "procedure": "Cellular proliferation studies. Cancer cells at 5×10^4 cells/well were plated in triplicate in standard flat-bottomed 96-well tissue culture plates in the presence of fullerene peptides in PBS buffer with a final volume of 100 μL. Unless otherwise indicated, cells were grown for 48 h at 37° C. in a CO2 incubator. Relative cell growth was determined by Cell Counting Kit-8 (CCK-8) cell proliferation assay as described by the manufacturer using an automated plate reader. Results were calculated in a blinded fashion and are the means of bi or triplicate determinations.\nThe effect of different Baa-peptide sequences on the cell viability of MCF-7 breast cancer cells was investigated to determine if the sequence has an effect rather than the presence of the C60. […] This is in agreement with the MTT cell viability test (see above). […] Clearly the sequence has a significant effect on the cell viability. However, it is worth noting that this may be due to either inherent differences in toxicity or differences in cellular uptake."}, "[7]": {"assay": "Peptide aggregation, particle size in solution by dynamic light scattering (DLS)", "format": "physicochemical", "conditions": "PBS buffer", "procedure": "Rink amide and Wang resin were obtained from Novabiochem, USA. Amino acids were purchased from Novabiochem and used as received. MALDI-TOF mass analysis was performed on a linear Protein-TOF Bruker instrument using sinipinic acid as the matrix. CD spectra were obtained on a Jasco J-700 dichrometer using 1 mm path-length quartz cells. Peptide solutions were 1.0 mg·mL^−1 solution in milliQ H2O or PBS buffer. In the case of peptides (21, 22 and 23), the pH was first adjusted to 10 to break up any aggregations and then adjusted by addition of 0.1 mM HCl until the desired pH was obtained. CD spectra were recorded in millidegrees and converted to residual molar ellipticity. TEM measurements were performed on a JEOL 2010 TEM at 200 kV. DLS Measurements were performed on the samples using an Brookhaven 90Plus submicron particle-size analyzer with HeNe laser (30 mW) that operates at […] wavelength.\nWith reference back to Table 1, in order to understand the intracellular transport of the FITC functionalized Baa-peptides, 25 and Baa-Lys(FITC)-NLS (26), their particle size in solution was determined by dynamic light scattering (DLS). Three series of solutions of 24, 25 and 26 in the range of 0.125-2.0 mg/mL was prepared by weighing method. PBS buffer prepared from HPLC grade water was used as solvent and was filtered through a […] cup filter (Millipore, Express)."}}, "data": [{"substance": "Baa-Lys(FITC)-Pro-Lys-Lys-Lys-Arg-Lys-Val-OH [Peptide 26]", "values": [{"measurement": "cellular uptake at 4° C.", "setting": "HEK-293a cells [1]", "result": "no cellular uptake activity"}, {"measurement": "average aggregate size (large aggregates)", "setting": "[2]", "result": "50-150 nm"}, {"measurement": "cellular uptake / localization by fluorescence", "setting": "HEK-293a cells [3]; […]", "result": "accumulate significantly in the nucleus"}, {"measurement": "cellular uptake / localization by fluorescence", "setting": "HEK-293a cells [3]; listed as H-Baa-Lys(FITC)-NLS", "result": "localized intense fluorescence in the center of the cells"}, {"measurement": "Active Cellular Uptake", "setting": "HEK-293a cells [3]; HEK-293a cells", "result": "Yes"}, {"measurement": "degradation of the sample in bovine plasma", "setting": "[4]", "result": "No degradation"}, {"measurement": "cellular uptake / localization by fluorescence", "setting": "[5]", "result": "intense point fluorescence in cytoplasm"}, {"measurement": "inhibition of cell growth", "setting": "[6]", "result": "no inhibition of cell growth up to 40 μM"}, {"measurement": "aggregate size, minor smaller component", "setting": "[7]", "result": "ca. 40 nm"}, {"measurement": "fraction of major aggregate component", "setting": "[7]", "result": "ca. 80%"}, {"measurement": "third larger aggregate size at high concentration", "setting": "[7]; 2.0 mg/mL (25), above 1.0 mg/mL (26)", "result": "ca. 800 nm"}, {"measurement": "aggregate size, major (or single) component", "setting": "[7]; 0.125-2.0 mg/mL", "result": "ca. 250 nm"}]}]}
